Consider 39 compounds from PubChem BioAssay AID1347044 (National Center for Advancing Translational Sciences (NCATS), 2019).

The term CC50 denotes the concentration at which the toxic effect on the cells reaches its halfway point. Low readings indicate harm at low concentration, high ones better tolerance by the cells.

The structures appear in SMILES notation. The list shows a part of the results. These are further read-outs of the screen, such as a control signal, another cell line or another target. No call is given for them. Compounds called inactive in the main read-out are mostly missing here. Words in brackets tell the shape of the fitted curve; partial curves, single points and poor fits give uncertain potencies.
Tags tell the direction and shape of the fitted curve.

This experiment in a line: Natriuretic polypeptide receptor (hNpr1) antagonism - Confirmation. Also: nearly all actives have a fitted effect of over 70% in size. Conditions: HEK293 hNpr1 cGMP GloSensor luminescence, ANP-stimulated; measured here: HEK-hNpr1 cytotoxicity, CellTiter-Glo. The method, boiled down:
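Compound (30 min, room temperature) preceded stimulation with hNppA peptide at 0.1 nM final for 20 min. Cells were HEK293 carrying hNpr1 plus GloSensor pGS-40F cGMP biosensor, pre-equilibrated 2 h with 2% substrate; cGMP was followed as luminescence pre- and post-agonist.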
On the technique in general: ATP-based viability assays read luminescence as a measure of living cells.
In the case of `Cc1ccccc1C(=O)N1CCC(Cc2nc(-c3ccccc3)no2)CC1`, the CC50 is 17.2 µM [falling, partial curve]. For `COCc1noc(-c2ccc(N(C)CC3CC(=O)N(C(C)(C)C)C3)nc2)n1` (centres undefined), the 50% cytotoxic concentration (CC50) was 21.7 µM [falling, partial curve, poor fit]. Regarding `COc1ccccc1Nc1ncc2c(n1)CN(C(=O)c1cccc(N(C)C)c1)CCN2`, the CC50 is 35.3 µM [falling, partial curve]. As to `CC1=NS(=O)(=O)N(Cc2ccccc2)C=C1C(=O)OCc1noc(-c2ccc(C)c(C)c2)n1`, the 50% cytotoxic concentration (CC50) is 17.2 µM [falling, partial curve]. Take `O=C(Nc1ccc(Oc2ccccc2)cc1)c1cc2n(n1)CC(c1ccc(Cl)cc1)OC2` (centres undefined): the CC50 was 3.43 µM [falling, full curve]. Regarding `CCC(=O)N1CCc2sc(C(=O)N3CCN(c4cccc(Cl)c4)CC3)cc2C1`, the CC50 was 19.3 µM [falling, partial curve].

For the compound `O=S(=O)(N[C@H]1CO[C@H]2[C@@H]1OC[C@@H]2Nc1nccc(-c2ccc3c(c2)OCO3)n1)c1ccc2ccccc2c1`, the 50% cytotoxic concentration (CC50) is 19.3 µM [falling, partial curve]. As for `COc1ccc(C(=O)N2CCn3c(nn(-c4ccc(Cl)cc4)c3=O)C2)cc1`, the CC50 was 21.7 µM [falling, partial curve]. For `O=S(=O)(c1ccc2c(c1)CCCC2)N1CCCC(Cn2cnc3cccnc32)C1` (centres undefined) the value was 27.3 µM [falling, single point]; for `Cc1cccc(C(=O)N2CCC(Oc3ccc(-c4noc(C(C)C)n4)cc3)C2)c1` (centres undefined), 27.3 µM [falling, partial curve]; for `COc1ccc(C2Cn3nnc(C(=O)N4CCN(C(=O)CCc5ccccc5)CC4)c3CO2)cc1` (centres undefined), 30.6 µM [falling, single point]. Consider `Cn1ccc2c(C(=O)NCc3cccnc3)nc(Nc3ccccc3)cc21`, for which the CC50 was 28 µM [falling, partial curve].

Regarding `Cc1ccc(NC(=O)C2CCN(c3cc(C(F)(F)F)ncn3)CC2)cc1F`, the 50% cytotoxic concentration (CC50) is 15.3 µM [falling, partial curve].

Turning to `N#Cc1ccc(C(=O)NC2CCN(c3cc(-c4ccc(Cl)cc4)[nH]n3)CC2)cc1`, the CC50 is 19.3 µM [falling, partial curve].

On to `Cn1nccc1-c1ncc2c(n1)OCCN(Cc1ccc(F)cc1F)C2=O`, for which the CC50 was 31.4 µM [falling, partial curve].

In the case of `COc1ccc(F)cc1Nc1cnc2ccc(N(C)Cc3cccnc3)nn12`, the cytotoxic concentration (CC50) is 31.4 µM [falling, partial curve]. With `Cc1ccccc1-c1cnc2[nH]cc(CC(=O)N3CCOCC3)c2c1`, the cytotoxic concentration (CC50) was 11.1 µM [falling, partial curve]. Regarding `Cc1nn2c(c1-c1ccccc1Oc1ccccc1)N(Cc1ccccc1O)CCC2`, the CC50 is 62.7 µM [falling, single point]. Consider `O=C(N1CCOCC1)N1C2CCC1CN(c1ccc(C(F)(F)F)cc1)C2`, for which the 50% cytotoxic concentration (CC50) is 21.7 µM [falling, partial curve].

Consider `O=C(Nc1cccc(Br)c1)C1CCN(c2cc(C(F)(F)F)ncn2)CC1`, for which the half-maximal cytotoxic concentration (CC50) was 30.6 µM [falling, single point]. As for `CCc1cccc(NC(=O)Cn2c(N(C)Cc3ccccc3)nc(C)cc2=O)c1`, the half-maximal cytotoxic concentration (CC50) is 15.3 µM [falling, partial curve]. On to `O=C(NCCCc1ccccc1)C1CCN(c2cc(C(F)(F)F)ncn2)CC1`, for which the CC50 is 19.3 µM [falling, partial curve]. Take `CC(Oc1ccccc1)C(=O)N1CCC(n2cc(-c3nc(-c4ccccc4)no3)nn2)CC1` (centres undefined): the half-maximal cytotoxic concentration (CC50) was 24.3 µM [falling, partial curve]. Consider `COCc1nc(-c2ccc(OC3CCN(Cc4ccc(C(F)(F)F)cc4)C3)cc2)no1` (centres undefined), for which the CC50 is 10.9 µM [falling, partial curve].

`Cc1noc(C)c1CN1CCc2nc(C(=O)Nc3cccc(C(F)(F)F)c3)oc2CC1`: the 50% cytotoxic concentration (CC50) was 31.4 µM [falling, partial curve]. Take `COc1ccc(-c2noc(CC3CCN(C(=O)c4ccc5c(c4)OCO5)CC3)n2)cc1`: the CC50 is 6.11 µM [falling, full curve].

For the compound `CN(C)c1ccc(C(=O)N2CCC3(CC2)N=C(c2ccc(Br)cc2)NO3)cc1`, the cytotoxic concentration (CC50) is 24.3 µM [falling, partial curve]. With `O=C(CCC1CCCN(S(=O)(=O)c2ccccc2)C1)N1CCN(c2ccccn2)CC1` (centres undefined), the cytotoxic concentration (CC50) is 21.7 µM [falling, partial curve]. Regarding `COc1ccc(-c2noc(CC3CCN(C(=O)CCc4ccccc4)CC3)n2)cc1`, the cytotoxic concentration (CC50) was 24.3 µM [falling, partial curve].

For the compound `Cc1cccc2c1nc1n2[C@@H](CNS(=O)(=O)Cc2ccccc2)COC1`, the half-maximal cytotoxic concentration (CC50) was 35.3 µM [falling, partial curve]. For `CC1=NS(=O)(=O)N(C)C=C1C(=O)OCc1noc(-c2cccs2)n1` the value was 27.3 µM [falling, single point]; for `CC1=C[C@@H](CN2CCN(c3ncccn3)CC2)[C@H](C(C)C)C[C@H]1Cc1nnc(-c2ccccc2F)o1`, 24.3 µM [falling, partial curve].

As for `CCOc1ccccc1C(=O)N1CCC(Cc2nc(-c3ccc(OC)cc3)no2)CC1`, the cytotoxic concentration (CC50) was 19.3 µM [falling, partial curve]. As for `O=C(Nc1ccc(Cl)cc1)c1nc2c(o1)CCN(CC1CCCC1)CC2`, the 50% cytotoxic concentration (CC50) is 31.4 µM [falling, partial curve]. In the case of `NS(=O)(=O)c1ccc(CCNC(=O)c2cc3n(n2)CC(c2ccc(Cl)cc2)OC3)cc1` (centres undefined), the CC50 is 24.3 µM [falling, partial curve]. Take `COc1cccc(-c2noc(CC3CCN(C(=O)c4ccccc4C)CC3)n2)c1`: the cytotoxic concentration (CC50) was 19.3 µM [falling, partial curve].

In the case of `O=C(NCc1ccc(N2CCCC2)cc1)C1CCCN(c2cnn(Cc3ccccc3)c(=O)c2)C1` (centres undefined), the half-maximal cytotoxic concentration (CC50) was 27.3 µM [falling, single point]. Take `CN(Cc1ccccc1)C(=O)c1ccc2c(c1)NC(C)(COc1cccnc1)CO2` (centres undefined): the 50% cytotoxic concentration (CC50) is 28 µM [falling, partial curve]. For the compound `Cc1ncsc1CN1CCC2(CC1)CC(Cc1nc(-c3ccccc3)no1)CCO2` (centres undefined), the CC50 is 15.3 µM [falling, partial curve].
